# Test results from PubChem BioAssay AID2675 (National Center for Advancing Translational Sciences (NCATS), 2010).
# The whole screen tested about 280,000 compounds, of which about 100 (0.036%) were called active. Entries that show only a call come without a potency. The shares of active, inactive and inconclusive entries below differ from those in the screen. Calls follow the shape of the dose curve; as a rule, active = well fitted inhibition curve with a large enough effect in the signal ratio, with a control signal flat (not every such curve was filed as active); inconclusive = small, poorly fitted or top-dose-only effect, or effect the other way, or a change in a side signal; inactive = no such curve, though single readings can be large or run the other way; the % refers to the signal ratio. A potency beside an inconclusive call is a rough fit, not a confirmed value. A note “side channel” means that the fit belongs to a control or component signal, not to the main read-out.
# Target: Muscleblind-like protein 1 (Homo sapiens) (UniProt Q9NR56)
# Sequence of UniProt Q9NR56 (Q9NR56 whole entry, looked up): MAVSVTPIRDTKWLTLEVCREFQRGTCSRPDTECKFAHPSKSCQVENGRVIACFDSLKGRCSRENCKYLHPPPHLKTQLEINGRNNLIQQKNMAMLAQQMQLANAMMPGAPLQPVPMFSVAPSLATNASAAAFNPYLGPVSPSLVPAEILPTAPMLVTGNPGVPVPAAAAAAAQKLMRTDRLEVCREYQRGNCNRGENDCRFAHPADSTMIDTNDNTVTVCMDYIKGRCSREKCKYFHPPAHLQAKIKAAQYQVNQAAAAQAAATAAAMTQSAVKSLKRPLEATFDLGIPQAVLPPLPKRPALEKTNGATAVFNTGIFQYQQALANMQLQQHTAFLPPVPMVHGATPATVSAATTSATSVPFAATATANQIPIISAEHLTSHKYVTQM
# Test: qHTS Assay for Inhibitors of MBNL1-poly(CUG) RNA binding
# Conditions: TR-FRET MBNL1-His/biotin-(CUG)12 binding, 665/545 ratio; series mostly up to 57.5 µM
# Method in brief: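 His-tagged MBNL1 binding to biotinylated (CUG)12 RNA was measured by TR-FRET using terbium anti-His antibody (0.055 ng/ul final) and streptavidin-XL665 (5 nM final). Compounds were titrated 92 nM to 58 uM; 60 min at room temperature.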
# Potency is read from the fitted curve at half-maximal effect; tags tell the direction and shape of the fitted curve or compound fluorescence and quenching.
row,SMILES,Potency
1,COc1ccc(/C=C(\C#N)C(=O)OCC(=O)Nc2ccc(-c3nc4ccc(C)cc4s3)cc2)cc1,inactive
2,Cc1cc2cc(CNC(=O)Cc3ccc([N+](=O)[O-])cc3)ccc2[nH]1,"inconclusive: 39.8 µM [quencher, single point]"
3,CCOc1cccc(C2C(C(=O)c3ccco3)=C(O)C(=O)N2Cc2ccncc2)c1 (stereo not given),"inconclusive: 7.08 µM [quencher, side channel, single point]"
4,COc1ccc2nc3c(cc2c1)c(NC(=O)c1cccs1)nn3CC(C)C,inactive
5,O=C(OCc1cccc([N+](=O)[O-])c1)c1cccnc1,"inconclusive: 15.8 µM [quencher, side channel, partial curve]"
6,Cc1cc(C)nc(SCCCNCc2ccc(Br)cc2)n1,inactive
7,CCC(CC)=NNc1ccc(S(N)(=O)=O)cc1[N+](=O)[O-],"inconclusive: 11.2 µM [quencher, side channel, partial curve]"
8,O=C(O)CCN1C(=O)c2ccc(NC(=O)Cc3ccc(Cl)cc3)cc2C1=O,inactive
9,Cc1cc2oc3c(c(=O)c2cc1C)C(c1ccc(F)cc1)N(CCCN1CCOCC1)C3=O (stereo not given),inactive
10,Cn1cc(C(=O)C(=O)NCCc2ccccc2)c2ccccc21,"inconclusive: 5.62 µM [fluorescent, side channel, full curve]"
11,COc1cc(/C=N\NC(C)=O)ccc1OC/C=C/c1ccccc1,inactive
12,Nc1cc(=O)[nH]c(SCC(=O)Nc2ccc([N+](=O)[O-])cc2)n1,"inconclusive: 20 µM [quencher, side channel, partial curve]"
13,Cc1cc2nnc(SCC(=O)N3C(C)CCCC3C)n2c(N)n1 (stereo not given),"inconclusive: 3.98 µM [quencher, side channel, single point]"
14,Cc1ccc(-c2ccc(/C=N/N3C(=O)C4C5C=CC(C6CC56)C4C3=O)o2)c([N+](=O)[O-])c1 (stereo not given),"inconclusive: 17.8 µM [quencher, single point]"
15,COc1cc(NC(=O)c2cc3ccccc3o2)ccc1NC(=O)c1ccco1,inactive
16,O=C(CSCC(=O)Nc1ccccc1)N/N=C/c1c(O)ccc2ccccc12,inactive
17,O=C(CSc1nnc(CNC(=O)c2cccs2)o1)c1ccccc1,"inconclusive: 20 µM [quencher, single point]"
18,Cc1cc(C)c(CN2CCC(n3nccc3NC(=O)c3ccccc3Cl)CC2)cc1C,inactive
19,O=C(Nc1ccc2[nH]c(=S)sc2c1)c1ccccc1,inactive
20,Cc1ccnc(Sc2ncccc2[N+](=O)[O-])n1,"inconclusive: 15.8 µM [quencher, partial curve]"
